# Data from PubChem BioAssay AID1346428 (National Center for Advancing Translational Sciences (NCATS), 2018).
# Where “and” joins values, the source holds several entries; their conditions need not be identical. Equal values may be shown once. Screen size: about 48,000 compounds; about 1,200 (2.5%) were called active. Not shown: some 2% with an inconclusive outcome.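 How the source made its calls: active means activation of at least 60% and not above a set upper limit (about 1 call in 100 departs from these limits); inconclusive means activation of 40% to 60%, or above that upper limit; inactive means activation under 40%.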 Some of the results follow.
# Molecular target: Probable G-protein coupled receptor 32 (Homo sapiens) (UniProt O75388)
# Sequence of UniProt O75388 (O75388 whole entry, looked up): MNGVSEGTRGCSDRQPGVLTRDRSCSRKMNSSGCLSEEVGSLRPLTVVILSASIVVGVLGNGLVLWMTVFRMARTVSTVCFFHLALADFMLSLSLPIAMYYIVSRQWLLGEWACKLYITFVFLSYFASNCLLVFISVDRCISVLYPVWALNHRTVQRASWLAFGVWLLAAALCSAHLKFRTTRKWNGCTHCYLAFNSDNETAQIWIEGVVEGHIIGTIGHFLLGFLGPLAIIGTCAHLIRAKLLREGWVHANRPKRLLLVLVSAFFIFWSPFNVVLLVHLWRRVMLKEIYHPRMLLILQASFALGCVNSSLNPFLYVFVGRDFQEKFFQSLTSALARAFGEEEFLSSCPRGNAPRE
# Assay: qHTS for Agonists of Human Resolvin D1 Receptor DRV1; further: 0% is about no effect
# Conditions: CHO-K1 GPR32 beta-arrestin PathHunter luminescence, 90 min; at 76.9 µM; active compounds read high; zero percent set by DMSO-only wells
# Method in brief: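 Beta-arrestin recruitment read-out: luminescence from complemented beta-Gal in CHO-K1 GPR32 PathHunter cells, measured 1 h after detection reagent at ambient temperature following 90 min compound exposure at 37 °C; DMSO served as basal (EC0) control.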
row,Structure (SMILES),activation
1,Cc1ccc(N2CCN(c3nc4ccccc4n4nnnc34)CC2)c(C)c1,inactive: -8.23%
2,N#Cc1c[nH]n2c(NC3CCCC3)c(-c3ccc(Br)cc3)nc12,inactive: -2.6%
3,Cc1ccc(Cl)cc1N1CCN(C(=O)c2cnn(-c3ccc(Cl)cc3)c2C2CCNCC2)CC1,inactive: -15.8%
4,CCc1nn2c(=O)cc(COC(=O)c3cccs3)nc2s1,inactive: 15.1%
5,CCOc1ccccc1CNC(=O)c1ccc2nc(CCc3ccccc3)oc2c1,inactive: -5.76%
6,N#Cc1nc(/C=C/c2ccc(F)cc2)oc1N1CCCCC1,inactive: 4.74%
7,CC(Oc1ccccc1)C(=O)Nc1ccc(C(=O)OCc2cc(=O)n3ccsc3n2)cc1 (configuration not stated),inactive: 6.82%
8,Cc1cccc(C(=O)NCC(=O)OCc2cc(=O)n3nc(C)sc3n2)c1,inactive: -9.44%
9,COC(=O)c1ccc(CN(Cc2ccc(OC)c(OC)c2)S(=O)(=O)c2ccc(F)c(C(=O)Nc3cc(C)ccc3C)c2)cc1,inactive: -12.1%
10,C[C@]12CCC(=O)C=C1CC[C@@H]1[C@@H]2C(=O)C[C@@]2(C)[C@H]1CC[C@]2(O)C(=O)CO,inactive: -16.2% and inactive: -13.6%
11,CCOc1ccccc1NC(=O)CN1Cc2ccccc2C1=O,inactive: -13.7%
12,Cc1cc(-c2ccccc2)nc2cc(C(=O)Nc3cc(C(F)(F)F)ccc3Cl)nn12,inactive: -7.21%
13,COc1ccc(CNC(=O)c2ccc3c(Cl)c4c(nc3c2)CCCC4)c(OC)c1,inactive: -1.05%
14,CCOC(=O)c1ccc(NC(=O)Cn2cc(S(=O)(=O)Cc3ccccc3F)c3ccccc32)cc1,inactive: -2.47%
15,CCCOc1ccccc1C(=O)Nc1ccc(-c2nc3ccc(C)cc3s2)cc1,inactive: 4.12%
16,Cc1ccc(Cn2cc3c(n2)-c2c(oc(C(=O)Nc4ccc(F)cc4F)c2C)CC3)cc1,inactive: -21%
17,Cc1nc(SCC(=O)Nc2ccc(Cl)cc2C(F)(F)F)[nH]c(=O)c1Cc1ccccc1,inactive: 13.7%
18,CCn1cc(C(=O)NCCCOC(C)C)c(=O)c2cc(S(=O)(=O)N(C)C3CCCCC3)ccc21,inactive: 3.09%
19,CCN(Cc1ccccc1)Cc1c(O)ccc2c(=O)c(-c3ccccc3Cl)coc12,inactive: -2.98%
20,COCCCC/C(=N\OCCN)c1ccc(C(F)(F)F)cc1,inactive: -3.83% and inactive: -1.42%
21,COc1cc(OC)c(NC(=O)CSCc2nc(-c3ccc(OC)c(OC)c3)no2)cc1Cl,inactive: -15.8%

row,Structure (SMILES),activation
1,CC(=O)c1cccc(NC(=O)c2ccc3c(c2)c(C)c(C)n3Cc2ccc(Cl)cc2)c1,inactive: -14.9%
2,O=C(NCc1ccccc1)c1ccc(Cn2c(=O)c3cccn3c3cccnc32)cc1,inactive: 3.71%
3,Cc1ccc(C)c(N2CCN(S(=O)(=O)c3ccc4c(c3)n(C)c(=O)c(=O)n4C)CC2)c1,inactive: -2.82%
4,O=C(Nc1cc(-c2nc3cc(Cl)ccc3o2)ccc1Cl)c1cc2ccccc2o1,inactive: -5.18%
5,CN(Cc1ccccc1)S(=O)(=O)c1ccc(F)c(C(=O)Nc2cc(Cl)cc(Cl)c2)c1,inactive: -20.5%
6,O=C(Cn1c(=O)n(Cc2ccc(F)cc2)c(=O)c2sc3ccccc3c21)NCc1ccccc1,inactive: 12.8%
7,O=C(Nc1cccc(-c2nc3cc(Cl)ccc3o2)c1)c1ccc(F)cc1,inactive: 6.08%
8,NC(=O)N[C@@H](CCC(=O)O)C(=O)O,inactive: 11.2%
9,Cc1ccc(OCCSc2nc3ccccc3n2CC(=O)N2CCCCC2)c(C)c1,inactive: -15%
10,Cc1nc2ccc(S(=O)(=O)N(CC(=O)Nc3cccc(C)c3C)Cc3ccccc3)cc2s1,inactive: -4.8%
11,Cc1ccc(C)c(Cn2c(C(C)NC(=O)c3ccccc3)nc3ccccc32)c1 (configuration not stated),inactive: -1.08%
12,Cc1ccc(NC(=O)C2CCC(CNS(=O)(=O)c3cccc4nsnc34)CC2)c(C)c1 (configuration not stated),inactive: -12.2%
13,COc1ccc(-c2nc3sc(CCNC(=O)C(=O)Nc4ccc(C)cc4C)c(C)n3n2)cc1,inactive: -9.89%
14,O=C(CSC1=Nc2ccccc2C2=NC(Cc3ccccc3)C(=O)N12)Nc1ccccc1 (configuration not stated),inactive: -29.3%
15,O=C(NCc1noc2ccccc12)N1CCN(c2ccccc2F)CC1,inactive: -4.52%
16,O=C(CCn1cnc2onc(-c3ccc(F)cc3)c2c1=O)N1CCN(c2ccccc2)CC1,inactive: 15.8%
17,COc1cccc(OCc2nc3ccccc3n2C)c1,inactive: -15.9%
18,CCOc1cccc2cc(-c3nc(-c4ccc(Cl)cc4)c(C)s3)c(=O)oc12,inactive: -0.443%
19,Cc1nc(N2CCOCC2)c2c(C(=O)N3CCN(c4ccc(Cl)cc4)CC3)c(C)oc2n1,inactive: -17.3%
20,COc1ccc(Cn2c(CCC(=O)Nc3cccc(Cl)c3)nc3cccnc32)cc1,inactive: 6.7%
21,COc1ccc(-c2ccc(NS(=O)(=O)c3ccccc3Cl)cc2)nn1,inactive: -15.8%

row,Structure (SMILES),activation
1,COc1ccc(-c2nsc(NC(=O)c3cccc(OC)c3)n2)cc1,inactive: 26.3%
2,CCOc1ccc(C(c2c(C)[nH]n(-c3ccccc3)c2=O)c2c(C)[nH]n(-c3ccccc3)c2=O)cc1OC,inactive: 6.9%
3,CCc1ccc(-c2cn3c(n2)sc2cc(C(=O)NCCCc4ccccc4)ccc23)cc1,inactive: -2.19%
4,CCOC(=O)COc1ccc(CC)cc1C(=O)c1ccn2nc(-c3ccc(Cl)cc3)cc2n1,inactive: 8.33%
5,CCOC(=O)c1c(NC(=O)C(C)Sc2cn(CCNC(=O)c3ccccc3OC)c3ccccc23)sc2c1CCC2 (configuration not stated),inactive: -5.47%
6,COC(=O)c1sc2cccc(F)c2c1S(=O)(=O)NCc1ccc(Cl)cc1,inactive: -30.3%
7,Cc1ccc(CSc2ncc(Cl)c(C(=O)Oc3ccc(F)cc3)n2)cc1,inactive: -2.24%
8,CCOc1ccc(NC(=O)Cn2c(=O)n(CCCC(=O)NCc3ccc4c(c3)OCO4)c(=O)c3ccccc32)cc1,inactive: -12%
9,COc1ccc(-c2noc(N3CCN(c4ccc(C)cc4)C(C)C3)n2)cc1OC (configuration not stated),active: 60.8%
10,COc1cccc(CNC(=O)CSC2=Nc3ccccc3C3=NC(C)C(=O)N23)c1OC (configuration not stated),inactive: -8.02%
11,CCCCS(=O)(=O)c1oc(-c2ccc(F)cc2)nc1S(=O)(=O)c1ccccc1,inactive: -16.3%
12,COc1ccccc1N1CCN(CCCNC(=O)c2cnn(-c3ccc(C)c(C)c3)c2C2CCN(C(=O)OC(C)(C)C)CC2)CC1,inactive: -18.5%
13,COc1ccccc1CNC(=O)c1cnc2c(-c3ccccc3)c(C)nn2c1C,inactive: -13.7%
14,O=C(c1ccc2c(c1)N(Cc1ccc(F)cc1)C(=O)c1ccccc1S2(=O)=O)N1CCN(c2ccccn2)CC1,inactive: 9.1%
15,COc1ccc(C(=O)Nc2ccccc2-c2nc(-c3ccc(OC)cc3)no2)cc1,inactive: 4.49%
16,O=C(c1cnc(N2CCCCC2)c2ccccc12)N1CCN(c2ccc(Cl)cc2)CC1,inactive: -34.2%
17,CCc1nn(CC(=O)N2CCN(c3ccc(Cl)cc3)CC2)c(=O)c2cc3occc3n12,inactive: -24.2%
18,CCn1c(=O)n(-c2cccc(Cl)c2)c(=O)c2sc3ccccc3c21,inactive: -4.92%
19,O=C(Nc1ccc(Cl)cc1)c1cc2nc(-c3ccc4c(c3)OCO4)cc(C(F)(F)F)n2n1,inactive: -7.62%
20,CC(=O)c1ccc(N2CCN(C(=O)c3cc4ccc5cccnc5c4[nH]3)CC2)cc1,inactive: -13%
21,Cc1cccc(NC(=O)C2CCCN(S(=O)(=O)c3ccc4c(c3)oc(=O)n4C)C2)c1 (configuration not stated),inactive: -16.8%

row,Structure (SMILES),activation
1,O=S(=O)(NCCS(=O)(=O)N1CCN(c2ccccc2)CC1)c1ccc(Cl)cc1,inactive: -15.8%
2,Cc1sc2c(c1C)c(=O)n(CCc1ccccc1)c(=O)n2Cc1ccc(F)cc1,inactive: -4.44%
3,Cc1ccc(C)c(S(=O)(=O)NCCc2csc(-c3ccc(Cl)cc3)n2)c1,active: 73.6%
4,COc1ccc(CCN2CC(C(=O)NCCc3ccccc3)CC2=O)cc1OC (configuration not stated),inactive: -11.5%
5,O=C(CCC(=O)c1ccccc1)Nc1ccc(F)c(Cl)c1,inactive: 24.2%
6,COc1ccc(OC)c(/C=C(\C#N)c2nc3ccccc3c(=O)[nH]2)c1,inactive: 14%
7,Cc1cc(C)c2sc(N(Cc3cccnc3)C(=O)CCOc3ccccc3)nc2c1,inactive: -2.17%
8,CCCC(=O)C1=C(c2cccc(OC)c2)N(C(=O)CCC)n2c(C)nnc2S1,inactive: -93.1%
9,CCOC(=O)c1ccc2c(c1)[C@@H]1C=CC[C@@H]1[C@H](c1cccc(OC)c1OC)N2,inactive: -11.7%
10,COc1ccccc1CNC(=O)CN(c1ccc(C)cc1)S(=O)(=O)c1c(C)noc1C,inactive: 30.4%
11,O=C(Nc1c(-c2ccc(F)cc2)nc2ccccn12)c1cccc(F)c1,inactive: -3.3%
12,Cc1c(C(=O)Nc2ccc(F)c(F)c2)oc2ccc(S(=O)(=O)N3CCC4(CC3)OCCO4)cc12,inactive: 9.91%
13,CC(=O)Nc1ccc(NS(=O)(=O)c2ccc(Cl)s2)cc1,inactive: -1.71%
14,Cc1nn(-c2ccc(F)cc2)c(-n2cccc2)c1C(=O)N1CCN(c2ccccc2F)CC1,inactive: -0.0295%
15,COc1ccc(OC)c(NC(=O)c2cnc(N3CCCC3)nc2C)c1,inactive: 1.98%
16,CCCCc1ccc(NS(=O)(=O)c2ccc(N3CCCCS3(=O)=O)cc2)cc1,inactive: -6.21%
17,CCOc1ccc(C(=O)c2cn(Cc3ccccc3)c3c(F)cc(F)cc3c2=O)cc1,inactive: 2.59%
18,Cc1ccc(C2C=C(c3ccc(F)cc3)Nc3nc(CCCO)nn32)cc1 (configuration not stated),inactive: -11.8%
19,CCCOc1ccc(NC(=O)CC2C(=O)N(c3ccc(C)cc3)C(=O)N2C2CCCC2)cc1 (configuration not stated),inactive: -2.09%
